{"source": "paper PMC6212790", "note": "The other results are listed elsewhere or left out. At the low end of the ranking the order means little.", "data": [{"target": "T1, GST-Rok-C97-191 (UniProt O34857)", "T1 sequence": "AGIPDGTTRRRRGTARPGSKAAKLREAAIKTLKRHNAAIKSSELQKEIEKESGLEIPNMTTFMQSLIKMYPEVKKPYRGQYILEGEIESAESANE", "assay": "protein binding microarray;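 also: rank score from −0.5 (least bound) to 0.5 (best bound)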", "details": "Rok is a gene silencer of Bacillus subtilis; high values mean tight binding; most listed sequences are background and not binding sites; double strand, one strand shown", "units": {"binding signal": "E-score"}, "values": [{"sequence": "GGTGCTCA", "binding signal": -0.16}, {"sequence": "GGGGCCTA", "binding signal": -0.285}, {"sequence": "ACGTATCC", "binding signal": 0.214}, {"sequence": "AAGTGAGG", "binding signal": -0.173}, {"sequence": "GGCCAAAC", "binding signal": -0.0521}, {"sequence": "GCCTTGTA", "binding signal": -0.0156}, {"sequence": "ACCGACCC", "binding signal": -0.388}, {"sequence": "ATATTTTA", "binding signal": 0.384}, {"sequence": "GGACCTTA", "binding signal": -0.146}, {"sequence": "AAAATCAT", "binding signal": 0.192}, {"sequence": "CCAGAACG", "binding signal": -0.0333}, {"sequence": "ACTACACC", "binding signal": 0.225}, {"sequence": "AACAGCCG", "binding signal": -0.0305}, {"sequence": "AACAAGGT", "binding signal": -0.0981}, {"sequence": "ATCGAGCA", "binding signal": -0.068}, {"sequence": "CAAGATGG", "binding signal": 0.0417}, {"sequence": "AAAGGATA", "binding signal": 0.218}, {"sequence": "CTATTGGA", "binding signal": 0.125}, {"sequence": "AGCTTGTG", "binding signal": -0.199}, {"sequence": "AAAACGGC", "binding signal": -0.231}, {"sequence": "TCGGTAGA", "binding signal": 0.227}, {"sequence": "AGACAACA", "binding signal": -0.204}, {"sequence": "ACACTCGT", "binding signal": 0.0895}, {"sequence": "GTACTATA", "binding signal": 0.436}, {"sequence": "ACGAAACG", "binding signal": -0.0685}, {"sequence": "CCAACACC", "binding signal": -0.124}, {"sequence": "AGGCATCA", "binding signal": 0.0352}, {"sequence": "ACCTTGCG", "binding signal": -0.16}, {"sequence": "ACAGTACC", "binding signal": 0.0949}, {"sequence": "CTAACAAA", "binding signal": 0.14}, {"sequence": "CTATCAGA", "binding signal": 0.239}, {"sequence": "CCACACAC", "binding signal": -0.0128}, {"sequence": "ACGCACCC", "binding signal": -0.19}, {"sequence": "ATGACCAA", "binding signal": 0.0405}, {"sequence": "CCCGAACG", "binding signal": -0.0846}, {"sequence": "ATCCGGAA", "binding signal": 0.084}, {"sequence": "GTCACAAA", "binding signal": 0.0798}, {"sequence": "GAACGATC", "binding signal": -0.13}, {"sequence": "ATTACATG", "binding signal": 0.211}, {"sequence": "GAGTAGCA", "binding signal": 0.107}, {"sequence": "AAGGCGCT", "binding signal": -0.115}, {"sequence": "CGATCCTA", "binding signal": 0.121}, {"sequence": "GTTCATTA", "binding signal": -0.0314}, {"sequence": "CCTTAGTA", "binding signal": -0.005}, {"sequence": "TATCGGCA", "binding signal": -0.0105}, {"sequence": "AGAATGCC", "binding signal": -0.131}, {"sequence": "AGCGTCGA", "binding signal": -0.071}, {"sequence": "AAGATAGG", "binding signal": 0.0239}, {"sequence": "GAGGCTAA", "binding signal": -0.112}, {"sequence": "GAACTTTA", "binding signal": 0.197}, {"sequence": "CTACGTAA", "binding signal": 0.119}, {"sequence": "CCACAGTC", "binding signal": -0.318}, {"sequence": "CTTTCCTC", "binding signal": -0.119}, {"sequence": "TGTGACAA", "binding signal": -0.0396}, {"sequence": "AGTTGAGA", "binding signal": 0.111}, {"sequence": "CCGAGATA", "binding signal": 0.115}, {"sequence": "GCAAGCCA", "binding signal": -0.18}, {"sequence": "CCCCCGTA", "binding signal": -0.206}, {"sequence": "CGGACTGC", "binding signal": -0.213}, {"sequence": "CCATTGCC", "binding signal": -0.292}, {"sequence": "ATAATTAA", "binding signal": 0.298}, {"sequence": "GCATAGAC", "binding signal": -0.0624}, {"sequence": "CTATTAGC", "binding signal": 0.234}, {"sequence": "AAGATTTG", "binding signal": 0.0549}, {"sequence": "CTTACGAC", "binding signal": 0.0937}, {"sequence": "CCGCTCCG", "binding signal": -0.187}, {"sequence": "CTATCATC", "binding signal": 0.262}, {"sequence": "CCTGTCCA", "binding signal": -0.149}, {"sequence": "AGGTAGGG", "binding signal": 0.0713}, {"sequence": "TCGACCGA", "binding signal": -0.0843}, {"sequence": "ATAGTATC", "binding signal": 0.278}, {"sequence": "ACTACATA", "binding signal": 0.305}, {"sequence": "CTATGGTC", "binding signal": -0.0653}, {"sequence": "CATCTTGG", "binding signal": -0.154}, {"sequence": "ACCGAGAA", "binding signal": -0.0134}, {"sequence": "AGACGGCA", "binding signal": -0.16}, {"sequence": "CCGAGGAG", "binding signal": -0.298}, {"sequence": "AGAAAACA", "binding signal": 0.0817}, {"sequence": "GAGAATCC", "binding signal": -0.0611}, {"sequence": "CGAGTTCC", "binding signal": -0.114}, {"sequence": "GACCTCAC", "binding signal": -0.0476}, {"sequence": "AATCGTCG", "binding signal": -0.0319}, {"sequence": "ACTATGTA", "binding signal": 0.356}, {"sequence": "AGAGATCG", "binding signal": -0.149}, {"sequence": "GTTATTAA", "binding signal": 0.22}, {"sequence": "GACATCGC", "binding signal": -0.0559}, {"sequence": "GTTTCGTA", "binding signal": 0.176}, {"sequence": "CCATCGCA", "binding signal": 0.00937}, {"sequence": "TAGTTGAA", "binding signal": 0.275}, {"sequence": "AACAACTA", "binding signal": 0.266}, {"sequence": "AACTACTG", "binding signal": 0.424}, {"sequence": "AGCTAGAC", "binding signal": 0.0593}, {"sequence": "AAGTCGTC", "binding signal": 0.172}, {"sequence": "GCGTCGAA", "binding signal": 0.0686}, {"sequence": "GGTACGGA", "binding signal": -0.029}, {"sequence": "GGTTGTAA", "binding signal": 0.257}, {"sequence": "AAAAAGTA", "binding signal": 0.209}, {"sequence": "TTATACAA", "binding signal": 0.222}, {"sequence": "AAGAGTGG", "binding signal": -0.145}, {"sequence": "GGTACCTA", "binding signal": 0.314}, {"sequence": "GAACTTAA", "binding signal": -0.0271}, {"sequence": "AGGGCCTC", "binding signal": -0.229}, {"sequence": "CATTCTTC", "binding signal": -0.00808}, {"sequence": "AAAGTCAT", "binding signal": -0.0308}, {"sequence": "AAACCTCA", "binding signal": -0.0824}, {"sequence": "CATGCCCC", "binding signal": -0.186}, {"sequence": "ACACCTCA", "binding signal": 0.0475}, {"sequence": "AAAAAATA", "binding signal": 0.323}, {"sequence": "ACTCGGAA", "binding signal": -0.0218}, {"sequence": "GTGCAGCA", "binding signal": -0.0437}, {"sequence": "ATGATAGG", "binding signal": 0.0735}, {"sequence": "CTGAAATC", "binding signal": 0.0754}, {"sequence": "ATGCGCTA", "binding signal": 0.219}, {"sequence": "ACACCATC", "binding signal": 0.00943}, {"sequence": "ATCGATAA", "binding signal": 0.254}, {"sequence": "GGATAGCA", "binding signal": 0.037}, {"sequence": "AAAAGAGC", "binding signal": -0.185}, {"sequence": "CGAACCAC", "binding signal": -0.165}, {"sequence": "CAGCAACG", "binding signal": -0.049}, {"sequence": "AGCTAGCG", "binding signal": 0.0179}, {"sequence": "ATATAGGC", "binding signal": -0.04}, {"sequence": "CTACGATC", "binding signal": 0.228}, {"sequence": "ACAATAGC", "binding signal": 0.132}, {"sequence": "GCGTTATA", "binding signal": 0.194}, {"sequence": "ATCCGCCC", "binding signal": -0.107}, {"sequence": "ACGTGACT", "binding signal": 0.0412}, {"sequence": "ACAGGCTA", "binding signal": -0.0679}, {"sequence": "CTATCGCA", "binding signal": 0.109}, {"sequence": "AGTCGGAC", "binding signal": -0.13}, {"sequence": "ACATGAGC", "binding signal": 0.158}, {"sequence": "CCTGCTCC", "binding signal": -0.376}, {"sequence": "CCAAAGTA", "binding signal": 0.144}, {"sequence": "CGTTTTCC", "binding signal": -0.065}, {"sequence": "TAACCTCA", "binding signal": 0.0294}, {"sequence": "ACTTTAAC", "binding signal": 0.131}, {"sequence": "GACCTTGC", "binding signal": -0.129}, {"sequence": "ATCGTAGG", "binding signal": -0.00208}, {"sequence": "GACAGCGA", "binding signal": -0.193}, {"sequence": "AGAATGAC", "binding signal": 0.117}, {"sequence": "GACTAGCA", "binding signal": 0.101}, {"sequence": "AGACCACG", "binding signal": -0.138}, {"sequence": "AGACCCGA", "binding signal": -0.216}, {"sequence": "ATTACCAC", "binding signal": 0.181}, {"sequence": "ATCCCCTA", "binding signal": -0.0867}, {"sequence": "CAGGCAGG", "binding signal": -0.243}, {"sequence": "GCATCTCC", "binding signal": -0.165}, {"sequence": "AGGTTATG", "binding signal": 0.0503}, {"sequence": "AAGGAGGC", "binding signal": -0.227}, {"sequence": "AGTTGCCA", "binding signal": 0.0801}, {"sequence": "GCGGTGCA", "binding signal": -0.13}, {"sequence": "AGAACGTG", "binding signal": -0.0462}, {"sequence": "AGTCGGAA", "binding signal": -0.0315}, {"sequence": "GGAAGTAA", "binding signal": 0.109}, {"sequence": "CAGTTACC", "binding signal": 0.221}, {"sequence": "CGTGACAA", "binding signal": -0.00338}, {"sequence": "CAAAAACA", "binding signal": 0.11}, {"sequence": "ATCATAGC", "binding signal": 0.114}, {"sequence": "ATCCGTAA", "binding signal": -0.0485}, {"sequence": "ATAACGGA", "binding signal": -0.0509}, {"sequence": "TAACGGAA", "binding signal": 0.0791}, {"sequence": "AGGCATCC", "binding signal": -0.109}, {"sequence": "GCGCTCCA", "binding signal": -0.26}, {"sequence": "CAGGGTGA", "binding signal": -0.181}, {"sequence": "CTGAAAAG", "binding signal": 0.0606}, {"sequence": "AACAGCCC", "binding signal": -0.177}, {"sequence": "AGTCCTTC", "binding signal": -0.125}, {"sequence": "AGGGAGCG", "binding signal": -0.258}, {"sequence": "CTAGTTTC", "binding signal": 0.422}, {"sequence": "GGGGACTA", "binding signal": -0.0683}, {"sequence": "ACTGAAGA", "binding signal": -0.0913}, {"sequence": "AAATAGTG", "binding signal": 0.215}, {"sequence": "GAGTAGGC", "binding signal": -0.0165}]}]}
